Data on 40 molecules can be found in patent US20230159453A1 (COCRYSTAL PHARMA, INC., priority 2020, published 2023).

Each structure is given as a SMILES string.

This assay addresses Noro protease (Norovirus, UniProt Q83883). Kind of assay: Norovirus protease inhibition assay (Noro-Norwalk FRET protease assay). The note with it: IC50 (μM), peptide substrate 10 μM, 90 minutes at 37° C., compounds 200 μM to 10.2 nM.
Molecule `CC(C)C[C@H](NC(=O)OC(c1ccccc1)C(C)(C)c1cccc(Cl)c1)C(=O)N[C@@H](C[C@@H]1CCNC1=O)C(=O)CO` (stereo partly drawn) [Compound C236, 2-(3-Chlorophenyl)-2-methyl-1-phenylpropyl ((S)-1-(((S)-4-hydroxy-3-oxo-1-((S)-2-oxopyrrolidin-3-yl)butan-2-yl)amino)-4-methyl-1-oxopentan-2-yl)carbamate] showed an IC50 of 185 µM.

`CC(C)C[C@H](NC(=O)OC(Cc1ccccc1)C1CCCCC1)C(=O)N[C@H](C=O)C[C@@H]1CCNC1=O` (stereo partly drawn) [Compound C237, 1-Cyclohexyl-2-phenylethyl ((S)-4-methyl-1-oxo-1-(((S)-1-oxo-3-((S)-2-oxopyrrolidin-3-yl)propan-2-yl)amino)pentan-2-yl)carbamate]: 8.6 µM corresponded to half-maximal inhibition (IC50).

`CC(C)C[C@H](NC(=O)OC(c1ccc(F)cc1)C(C)(C)c1cccc(Cl)c1)C(=O)N[C@H](C=O)C[C@@H]1CCNC1=O` (stereo partly drawn) [Compound C238, 2-(3-chlorophenyl)-1-(4-fluorophenyl)-2-methylpropyl ((S)-4-methyl-1-oxo-1-(((S)-1-oxo-3-((S)-2-oxopyrrolidin-3-yl)propan-2-yl)amino)pentan-2-yl)carbamate] returned an IC50 of 1.6 µM.

For the molecule `CC(C)C[C@H](NC(=O)OC1CCCC1Cc1ccccc1)C(=O)N[C@@H](C[C@@H]1CCNC1=O)C(=O)C(N)=O` (stereo partly drawn) [Compound C240, 2-Benzylcyclopentyl ((S)-1-(((S)-4-amino-3,4-dioxo-1-((S)-2-oxopyrrolidin-3-yl)butan-2-yl)amino)-4-methyl-1-oxopentan-2-yl)carbamate], the IC50 was over 200 µM.

In turn, `O=C(N[C@@H](CC1CCCCC1)C(=O)N[C@@H](C[C@@H]1CCNC1=O)C(=O)C(=O)NC1CC1)OC(Cc1cccc(Cl)c1)c1cccc(Cl)c1` (stereo partly drawn) [Compound C241, 1,2-Bis(3-chlorophenyl)ethyl ((S)-3-cyclohexyl-1-(((S)-4-(cyclopropylamino)-3,4-dioxo-1-((S)-2-oxopyrrolidin-3-yl)butan-2-yl)amino)-1-oxopropan-2-yl)carbamate] registered an IC50 of 85.7 µM.

Molecule `CC(C)C[C@H](NC(=O)OC(Cc1cccc(Cl)c1)c1cccc(Cl)c1)C(=O)N[C@@H](C[C@@H]1CCNC1=O)C(=O)C(=O)NC1CC1` (stereo partly drawn) [Compound C242, 1,2-Bis(3-chlorophenyl)ethyl ((S)-1-(((S)-4-(cyclopropylamino)-3,4-dioxo-1-((S)-2-oxopyrrolidin-3-yl)butan-2-yl)amino)-4-methyl-1-oxopentan-2-yl)carbamate] gave an IC50 of 33.9 µM.

`CC(C)C[C@H](NC(=O)OC(Cc1cccc(Cl)c1)c1ccccc1)C(=O)N[C@@H](C[C@@H]1CCNC1=O)C(=O)C(=O)N1CCCCC1` (stereo partly drawn) [Compound C243, 2-(3-Chlorophenyl)-1-phenylethyl ((S)-1-(((S)-3,4-dioxo-1-((S)-2-oxopyrrolidin-3-yl)-4-(piperidin-1-yl)butan-2-yl)amino)-4-methyl-1-oxopentan-2-yl) carbamate] yielded an IC50 of over 200 µM.

Consider `CC1(C)CC(CC(NC(=O)[C@H](CC2CCCCC2)NC(=O)OCc2cccc(Cl)c2)C(=O)C(=O)NC2CC2)C(=O)N1` (stereo partly drawn) [Compound C244, 3-Chlorobenzyl ((2S)-3-cyclohexyl-1-((4-(cyclopropylamino)-1-(5,5-dimethyl-2-oxopyrrolidin-3-yl)-3,4-dioxobutan-2-yl)amino)-1-oxopropan-2-yl) carbamate], for which inhibition was half-maximal at 97.6 µM (IC50).

`CC1(C)CC(CC(NC(=O)[C@H](CC2CCCCC2)NC(=O)OC(c2ccc(Cl)cc2)C(C)(C)c2cccc(Cl)c2)C(=O)C(=O)NC2CC2)C(=O)N1` (stereo partly shown) [Compound C245]: the IC50 is over 200 µM.

`CC(C)C[C@H](NC(=O)OC(c1ccc(Cl)cc1)C(C)(C)c1cccc(Cl)c1)C(=O)N[C@H](C=O)C[C@@H]1CCNC1=O` (stereo partly shown) [Compound C246] returned an IC50 of 52.1 µM.

In turn, `CC(C)C[C@H](NC(=O)OC(c1ccc(F)cc1)C(C)(C)c1cccc(Cl)c1)C(=O)N[C@@H](C[C@@H]1CCNC1=O)C(=O)C(=O)NC1CC1` (stereo partly shown) [Compound C247] returned an IC50 of 183 µM.

The molecule `CC(C)C[C@H](NC(=O)OC(c1ccccc1)C(C)(C)c1cccc(Cl)c1)C(=O)N[C@@H](C[C@@H]1CCNC1=O)C(=O)C(=O)N1CCN(C)CC1` (stereo partly shown) [Compound C248] yielded an IC50 of over 200 µM.

As to `CC(C)C[C@H](NC(=O)OC(Cc1cccc(Cl)c1)c1ccccc1)C(=O)N[C@@H](C[C@@H]1CCNC1=O)C(=O)NS(=O)(=O)C1CC1` (stereo partly shown) [Compound C249], the IC50 was over 200 µM.

Molecule `O=C[C@H](C[C@@H]1CCNC1=O)NC(=O)[C@H](CC1CCCCC1)NC(=O)OC(c1cccc(Cl)c1)C1(c2cccc(Cl)c2)CC1` (stereo partly drawn) [Compound C250, (3-Chlorophenyl)(1-(3-chlorophenyl)cyclopropyl)methyl ((S)-3-cyclohexyl-1-oxo-1-(((S)-1-oxo-3-((S)-2-oxopyrrolidin-3-yl)propan-2-yl)amino)propan-2-yl)carbamate] showed an IC50 of 11.7 µM.

As for `CC(C)C[C@H](NC(=O)OC(c1ccccc1)C(F)(F)c1cccc(Cl)c1)C(=O)N[C@@H](C[C@@H]1CCNC1=O)C(=O)C(N)=O` (stereo partly shown) [Compound C251], the IC50 stood at 58.2 µM.

`CC(C)C[C@H](NC(=O)OC(c1ccccc1)C(F)(F)c1cccc(Cl)c1)C(=O)N[C@H](C=O)C[C@@H]1CCNC1=O` (stereo partly shown) [Compound C252]: the IC50 was determined as 0.973 µM.

As for `CC(C)(c1cccc(Cl)c1)C(OC(=O)N[C@@H](Cc1ccccc1)C(=O)N[C@@H](C[C@@H]1CCNC1=O)C(=O)C(N)=O)c1ccccc1` (stereo partly shown) [Compound C254], the IC50 was over 200 µM.

With `NC(=O)C(=O)[C@H](C[C@@H]1CCNC1=O)NC(=O)[C@H](Cc1ccccc1)NC(=O)OC(CCc1ccccc1)c1ccccc1` (stereo partly shown) [Compound C255], the IC50 is over 200 µM.

Molecule `CC(C)C[C@H](NC(=O)OCCCc1ccccc1)C(=O)N[C@@H](C[C@@H]1CCNC1=O)C(=O)C(N)=O` [Compound C256] gave an IC50 of over 200 µM.

Molecule `CC(C)(c1cccc(Cl)c1)C(OC(=O)N[C@@H](Cc1ccccc1)C(=O)N[C@H](C=O)C[C@@H]1CCNC1=O)c1ccccc1` (stereo partly shown) [Compound C257] came in with an IC50 of over 200 µM.

The molecule `CC(C)C[C@H](NC(=O)OC(c1ccccc1)C(F)(F)c1cccc(Cl)c1)C(=O)N[C@@H](C[C@@H]1CCNC1=O)C(=O)C(=O)NC1CC1` (stereo partly shown) [Compound C258] displayed an IC50 of 42.9 µM.

For the molecule `CC(C)C[C@H](NC(=O)OC(CCc1ccccc1)c1ccccc1)C(=O)N[C@H](C=O)C[C@@H]1CCNC1=O` (stereo partly shown) [Compound C259], half-maximal inhibition (IC50) was put at 4.4 µM.

The molecule `CC(C)C[C@H](NC(=O)OC(c1ccccc1)C(C)(C)c1cccc(Cl)c1)C(=O)N[C@@H](C[C@@H]1CCNC1=O)C(=O)C(=O)NCCN(C)C` (stereo partly shown) [Compound C260] gave an IC50 of over 200 µM.

`CC(C)C[C@H](NC(=O)OC(c1ccccc1)C(C)(C)c1cccc(Cl)c1)C(=O)N[C@@H](C[C@@H]1CCNC1=O)C(=O)C(=O)N1CCN(C(=O)OC(C)(C)C)CC1` (stereo partly shown) [Compound C261] showed an IC50 of 193 µM.

With `O=C[C@H](C[C@@H]1CCNC1=O)NC(=O)[C@H](CC1CCCCC1)NC(=O)O[C@@H]1CCC[C@H]1Cc1cccc(Cl)c1` [Compound C262], the midpoint of inhibition, the IC50, lay at 3.2 µM.

The molecule `O=C(N[C@@H](CC1CCCCC1)C(=O)N[C@@H](C[C@@H]1CCNC1=O)C(=O)C(=O)NC1CC1)O[C@H]1CCC[C@@H]1Cc1cccc(Cl)c1` [Compound C264] had an IC50 of 12.7 µM.

`O=C(N[C@@H](CC1CCCCC1)C(=O)N[C@@H](C[C@@H]1CCNC1=O)C(=O)C(=O)NC1CC1)O[C@@H]1CCC[C@@H]1Cc1cccc(Cl)c1` [Compound C265] returned an IC50 of 10.4 µM.

`CC(C)C[C@H](NC(=O)OC(c1cccc(Cl)c1)C(F)(F)c1cccc(Cl)c1)C(=O)N[C@H](C=O)C[C@@H]1CCNC1=O` (stereo partly shown) [Compound C266]: inhibition was half-maximal at 0.796 µM (IC50).

In turn, `CCCCC[C@H](NC(=O)OC(c1ccccc1)C(C)(C)c1cccc(Cl)c1)C(=O)N[C@H](C=O)C[C@@H]1CCNC1=O` (stereo partly shown) [Compound C267] gave an IC50 of 7.5 µM.

`CC(C)C[C@H](NC(=O)O[C@@H](c1cccc(F)c1)C(C)(C)c1cccc(Cl)c1)C(=O)N[C@H](C=O)C[C@@H]1CCNC1=O` [Compound C268] showed a concentration for half-maximal inhibition (IC50) of 0.549 µM.

With `CC(C)C[C@H](NC(=O)O[C@H](c1cccc(F)c1)C(C)(C)c1cccc(Cl)c1)C(=O)N[C@H](C=O)C[C@@H]1CCNC1=O` [Compound C269], the IC50 was 2.2 µM.

Molecule `CC(C)C[C@H](NC(=O)OC(c1ccccc1)C(C)(C)c1cccc(Cl)c1)C(=O)N[C@@H](C[C@@H]1CCNC1=O)C(=O)C(=O)N1CCCCC1` (stereo partly shown) [Compound C270] yielded an IC50 of 106 µM.

With `CCOCCNC(=O)C(=O)[C@H](C[C@@H]1CCNC1=O)NC(=O)[C@H](CC1CCCCC1)NC(=O)OC(c1ccccc1)C(C)(C)c1cccc(Cl)c1` (stereo partly shown) [Compound C271], the IC50 was over 200 µM.

Molecule `O=C[C@H](C[C@@H]1CCNC1=O)NC(=O)[C@H](CC1CCCCC1)NC(=O)OC(Cc1cccc(Cl)c1)c1cccc(Cl)c1` (stereo partly drawn) [Compound C272, 1,2-Bis(3-chlorophenyl)ethyl ((S)-3-cyclohexyl-1-oxo-1-(((S)-1-oxo-3-((S)-2-oxopyrrolidin-3-yl)propan-2-yl)amino)propan-2-yl)carbamate] yielded an IC50 of 16.4 µM.

In turn, `CC(C)(c1cccc(Cl)c1)C(OC(=O)N[C@@H](CC1CCCCC1)C(=O)N[C@@H](C[C@@H]1CCNC1=O)C(=O)CO)c1ccccc1` (stereo partly shown) [Compound C273] yielded an IC50 of over 200 µM.

For `CC(C)C[C@H](NC(=O)OC(c1ccccc1)C(C)(C)c1cccc(Cl)c1)C(=O)N[C@@H](C[C@@H]1CCNC1=O)C(=O)C(=O)N1CCNCC1` (stereo partly shown) [Compound C274], the IC50 is over 200 µM.

Molecule `CC(C)C[C@H](NC(=O)O[C@@H](c1ccccc1)C(C)(C)c1cccc(Cl)c1)C(=O)N[C@H](C=O)C[C@@H]1CCNC1=O` [Compound C275] displayed an IC50 of 1.5 µM.

Turning to `CC(C)C[C@H](NC(=O)O[C@H](c1ccccc1)C(C)(C)c1cccc(Cl)c1)C(=O)N[C@H](C=O)C[C@@H]1CCNC1=O` [Compound C276], the IC50 is 3.5 µM.

As for `CC(C)C[C@H](NC(=O)OC(c1ccccc1)C1(c2cccc(Cl)c2)CCC1)C(=O)N[C@H](C=O)C[C@@H]1CCNC1=O` (stereo partly shown) [Compound C277], the IC50 turned out to be 33.4 µM.

In the case of `CC(C)C[C@H](NC(=O)OC(c1ccccc1)C1(c2cccc(Cl)c2)CCCC1)C(=O)N[C@H](C=O)C[C@@H]1CCNC1=O` (stereo partly shown) [Compound C278], the IC50 was found to be 3.5 µM.

One may read the IC50 as the concentration that gives 50% inhibition. Lower therefore signals higher potency.
